Measurements taken from PubChem BioAssay (NCATS).
Some of the results follow. Shown are side measurements of this screen, not its main read-out; they come without a call. Compounds called inactive in the main read-out are mostly missing here. Words in brackets tell the shape of the fitted curve; partial curves, single points and poor fits give uncertain potencies. Numbered stars: 1 amine (or outer) side, 2 acyl side, 3 side chain; on linkers, the order of the positions; unused ones are H or OH. Bridge positions count the residues as written; N and C are the ends. Square brackets hold non-standard residues; d marks the D form. Peptide text beside a SMILES is read from it. I, II: the chains in the order shown. Actinocin(9to1) = Cc1c2oc3c(C)ccc(C(=O)[*:1])c3nc-2c(C(=O)[*:2])c(N)c1=O; aThr = C[C@H](O)[C@H](N)C(=O)O; NMeV = CN[C@H](C(=O)O)C(C)C; Sar = CNCC(=O)O

Assay: qHTS Assay for Lipid Storage Modulators (AID 1519)
Settings: Drosophila S3 cells, BODIPY lipid droplet/cell ratio, laser cytometry, cells loaded with oleic acid; for AC50: measured here: lipid (BODIPY) channel AC50
Outline: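 Cells seeded at 5,000 per well were treated with compounds over a concentration series and loaded with oleic acid (400 uM, as added). Lipid droplet fluorescence (488 nm excitation, 500-530 nm channel) was read by laser-scanning cytometry and normalized to 20 uM Triacsin C.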

[1] = measured here: cell count channel max response
[2] = measured here: lipid channel max response
Tags describe the fitted curve by direction and shape.

SMILES | max response [1] [%] | max response [2] [%] | AC50
CN1C2CCC1CC(OC(=O)C(O)c1ccccc1)C2 (stereo not drawn) | 50 | 50.8 | –
O=C(NCCN1CCCCC1)c1ccc(I)cc1 | 40.5 | 42.3 | –
CC(=O)Nc1nnc(S(N)(=O)=O)s1 | 57.7 | 55.3 | –
COc1ccc(-c2cc(=O)c3c(OC(C)=O)cc(OC(C)=O)cc3o2)cc1 | 5.67 | -21.3 | –
Cn1cccc1C(=O)N1CCC2(CCCN(c3cccc(-c4ccccc4)c3)C2)CC1 | 24.3 | -37.6 | –
CSCCC(NC=O)C(=O)NC(CC(C)C)C(=O)NC(Cc1ccccc1)C(=O)O (stereo not drawn) | 27.9 | 39.9 | –
CC[C@]1(O)C[C@@H]2CN(CCc3c([nH]c4ccccc34)[C@](C(=O)OC)(c3cc4c(cc3OC)N(C)[C@H]3[C@](O)(C(=O)OC)[C@@H](C(=O)OC)[C@@]5(CC)C=CCN6CC[C@@]43[C@@H]65)C2)C1 | 39.8 | 40.6 | –
COC(=O)CC1C(C)(C)C(OC(C)=O)C2[C@H](OC(C)=O)[C@]34O[C@]2(O)[C@]1(C)C3CC[C@]1(C)C4=CC(=O)OC1c1ccoc1 (stereo partly drawn) | – | – | 14.1 µM [falling, partial curve]
C1CCN2CC3CC(CN4CCCC[C@@H]34)C2C1 (stereo partly drawn) | -2.25 | -0.575 | –
CN(C(=O)c1c(O)c2ccccc2n(C)c1=O)c1ccccc1 | 55.9 | 65.8 | –
COc1ccc(CNc2nc(-c3ccc(N(C)C)cc3)nc3ccccc23)c(OC)c1 | -46.5 | -71.4 | –
NC1CCN(O)C1=O (stereo not drawn) | 43.4 | 46.1 | –
COc1cc(/C=C/C(=O)/C=C(O)/C=C/c2ccc(O)c(OC)c2)ccc1O | 15.3 | -20.1 | –
Cc1c2oc3c(C)ccc(C(=O)N[C@@H]4C(=O)N[C@@H](C(C)C)C(=O)N5CCC[C@@H]5C(=O)N(C)CC(=O)N(C)[C@@H](C(C)C)C(=O)O[C@H]4C)c3nc-2c(C(=O)N[C@@H]2C(=O)N[C@@H](C(C)C)C(=O)N3CCC[C@@H]3C(=O)N(C)CC(=O)N(C)[C@@H](C(C)C)C(=O)O[C@H]2C)c(N)c1=O (I: [aThr]V[dP][Sar][NMeV] / II: [aThr]V[dP][Sar][NMeV]; ester I:1-I:C, II:1-II:C; linker I:N-II:N via Actinocin(9to1)) | 72.3 | 26.6 | –
CCCc1c(OCCCOc2ccc(OCC(=O)O)cc2)ccc(CC=O)c1O | 29 | 42.5 | –
N[C@H](Cn1ccc(=O)n(Cc2ccccc2C(=O)O)c1=O)C(=O)O | 26.7 | 30.7 | –
OC1CCC2Cc3ccccc3N=C12 (stereo not drawn) | 25.7 | 37.1 | –
Nc1ncnc2c1ncn2[C@@H]1O[C@H](C(=O)NC2CC2)[C@H](O)[C@H]1O | 59.3 | 63.3 | –
NCC(O)(CS(=O)(=O)O)c1ccc(Cl)cc1 (stereo not drawn) | 34.7 | 32 | –

SMILES | max response [1] [%] | max response [2] [%] | AC50
CC(C)(C)NCC(O)COc1nsnc1N1CCOCC1 (stereo not drawn) | 36.5 | 33.8 | –
COc1cc(/C=C/C(=O)c2cccs2)cc(OC)c1OC | 60.9 | -2.99 | –
Nc1c[n+](N2CCOCC2)no1 | 21.7 | 31.5 | –
COc1ccc(-c2nc3cnc(Nc4ccccc4)nc3n(C[C@H]3CCCO3)c2=O)cc1 | – | – | 10 µM [falling, partial curve]
O=c1cnc2cnc(Nc3ccccc3)nc2n1C[C@H]1CCCO1 | -6.28 | -59.7 | –
CC(=O)OC1c2c(ccc3ccc(=O)oc23)OC(C)(C)C1OC(=O)CC(C)C (stereo not drawn) | – | – | 17.8 µM [falling, partial curve]
C(=C/c1ccccc1)/CN1CCN(C(c2ccccc2)c2ccccc2)CC1 | -17.9 | -32.6 | –
Cc1ccc2c(c1)c1c3n2CCN[C@H]3CCC1 | 66.3 | 82 | –
Fc1ccc(C(c2ccc(F)cc2)N2CCN(C/C=C\c3ccccc3)CC2)cc1 | 55.8 | 62.8 | –
O=C1N=C(O)CN1/N=C\c1ccc(-c2ccc([N+](=O)[O-])cc2)o1 | 67.3 | 86.2 | –
NCCCCNS(=O)(=O)c1ccc2c(Cl)cccc2c1 | 45.6 | 55.9 | –
CN=C(NC#N)NCCSCc1nc[nH]c1C | 48.8 | 43.3 | –
CC(=O)OC(C)C[N+](C)(C)C (stereo not drawn) | 48.2 | 51.2 | –
COc1ccc(-c2ccc(=N)n(CCCC(=O)O)n2)cc1 | -1.49 | -1.66 | –
C=CC(N)CCC(=O)O (stereo not drawn) | 31.6 | 32.4 | –
NCCCCCCCCCCNS(=O)(=O)c1cccc2c(Cl)cccc12 | -0.0289 | -86.1 | –
O=c1cc(-c2ccccc2O)oc2c1ccc1ccccc12 | 63.6 | 85.9 | –
N[C@H](CO)C(=O)O | 36.5 | 41.6 | –
NCCSSCCN | 50.2 | 49.6 | –
